# Reference: publication PMC4336329 (PLoS ONE, 2015)
# Out of some 310,000 compounds screened, about 2,200 (0.71%) showed an effect of 50% or more. The effect is printed as a negative number. This is one part of the list.
# Target: human ether-à-go-go-related gene (hERG) potassium channel (human, UniProt Q12809)
# Assay: primary screen, population patch clamp on CHO cells stably expressing hERG
# human ether-à-go-go-related gene (hERG) potassium channel, sequence (Q12809 whole entry, looked up): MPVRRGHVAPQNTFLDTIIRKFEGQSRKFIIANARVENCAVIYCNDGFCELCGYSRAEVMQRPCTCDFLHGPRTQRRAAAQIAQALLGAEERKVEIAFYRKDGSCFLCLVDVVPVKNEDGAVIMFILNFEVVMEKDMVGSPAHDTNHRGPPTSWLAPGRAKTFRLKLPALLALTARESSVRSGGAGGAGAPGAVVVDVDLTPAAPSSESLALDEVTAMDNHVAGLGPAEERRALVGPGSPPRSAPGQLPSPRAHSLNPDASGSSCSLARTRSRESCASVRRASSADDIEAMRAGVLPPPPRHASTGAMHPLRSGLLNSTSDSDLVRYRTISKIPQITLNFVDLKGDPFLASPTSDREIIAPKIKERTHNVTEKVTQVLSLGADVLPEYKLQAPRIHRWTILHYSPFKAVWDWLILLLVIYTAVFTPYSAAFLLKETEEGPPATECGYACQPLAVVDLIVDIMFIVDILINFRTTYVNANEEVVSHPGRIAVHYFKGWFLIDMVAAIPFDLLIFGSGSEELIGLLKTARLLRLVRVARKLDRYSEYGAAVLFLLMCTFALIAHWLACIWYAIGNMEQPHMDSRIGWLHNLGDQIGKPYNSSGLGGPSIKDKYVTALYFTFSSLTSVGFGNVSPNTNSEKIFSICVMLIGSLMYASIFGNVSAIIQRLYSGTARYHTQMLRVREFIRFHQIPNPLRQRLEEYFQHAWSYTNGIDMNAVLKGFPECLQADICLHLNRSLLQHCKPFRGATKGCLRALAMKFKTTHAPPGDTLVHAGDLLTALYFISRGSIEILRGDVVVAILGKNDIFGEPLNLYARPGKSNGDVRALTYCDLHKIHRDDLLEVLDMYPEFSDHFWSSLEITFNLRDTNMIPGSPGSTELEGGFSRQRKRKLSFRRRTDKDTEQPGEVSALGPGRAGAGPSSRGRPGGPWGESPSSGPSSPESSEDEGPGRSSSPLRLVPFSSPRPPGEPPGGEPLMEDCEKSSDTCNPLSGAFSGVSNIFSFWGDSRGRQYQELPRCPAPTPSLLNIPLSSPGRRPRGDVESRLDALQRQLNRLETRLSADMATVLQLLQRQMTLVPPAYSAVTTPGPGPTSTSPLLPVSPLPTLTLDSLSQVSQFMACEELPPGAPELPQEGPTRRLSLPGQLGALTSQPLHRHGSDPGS
row,SMILES,"hERG current change (%, negative = inhibition) at 1uM"
1,Cc1cccc(N2CCN(S(=O)(=O)c3cc(-c4cc(C)no4)ccc3C)CC2C)c1 (stereo not shown),15.2%
2,CC(C)(C)OC(=O)N1CCOCCOCCNCCOCCOCC1,9.78%
3,O=C(NCc1ccc2c(c1)OCO2)c1ccc(Br)s1,13.2%
4,CCOC(=O)CN/C=C(\C#N)c1ccc(F)cc1,-7.46%
5,O=C(CN1CCCC1)Nc1c(Cl)cccc1Cl,14.3%
6,COc1ccc(C(F)(F)F)cc1NC(=O)c1nc2nc(C)cc(C(F)F)n2n1,17.2%
7,COC(=O)CN(c1ccc(C)cc1)S(=O)(=O)c1ccc2c(c1)n(C)c(=O)c(=O)n2C,5.25%
8,Cc1onc(-c2ccccc2)c1C(=O)Nc1ccc(S(=O)(=O)Nc2nccs2)cc1,8.75%
9,CN(CC(=O)Nc1cccc(F)c1)C(=O)c1cccnc1Sc1ccc(Cl)cc1,4.68%
10,CC(C)CN(CC(C)C)S(=O)(=O)N1CCC(C(=O)NC2CCCCCCC2)CC1,3.39%
11,O=S(=O)(Cc1ccccc1Cl)N1CCN(Cc2ccc3c(c2)OCO3)CC1,9.22%
12,Cc1cc(Cl)ccc1OCC(=O)Nc1ccccc1C(=O)N1CCOCC1,10.4%
13,Cc1cc(CNC(=O)COC(=O)Cn2[nH]c(=O)c3ccccc3c2=O)cc(C)c1O,26.2%
14,COc1ccc(C(=O)NC(C(=O)NCCc2ccc3c(c2)OCCO3)C(C)C)cc1 (stereo not shown),10.2%
15,O=C(CCCN1C(=O)c2cccc3cccc(c23)C1=O)NCc1cccnc1,10.8%
16,CC1CCCN(C(=O)CCNS(=O)(=O)c2ccc3c(c2)oc(=O)n3C)C1 (stereo not shown),16.1%
17,COc1cc(OC)cc(C(=O)N2CCN(C(=O)c3cccs3)CC2)c1,10.1%
18,Cc1ccc(NCC(=O)N=Nc2c(O)n(C)c3ccccc23)cc1,2.3%
19,COc1cccc(N2CCN(C(=O)C3CCCN(c4ncnc5c4nc4n5CCCCC4)C3)CC2)c1 (stereo not shown),-1.74%
20,CCC(=O)NC(NC(=S)Nc1c(C)n(C)n(-c2ccccc2)c1=O)C(Cl)(Cl)Cl (stereo not shown),6.62%
21,CN1CC(C(=O)O)Cc2c1ccc1ccccc21 (stereo not shown),12.5%
22,Cn1c(C(=O)OC(C(=O)NC2CCCCC2)c2ccncc2)cc2sccc21 (stereo not shown),8.87%

row,SMILES,"hERG current change (%, negative = inhibition) at 1uM"
1,CCc1nnc(NC(=O)COc2ccccc2[N+](=O)[O-])s1,6.91%
2,O=C(Cc1sc(Nc2ccccc2)nc1-c1ccccc1)NCc1ccccc1,11.8%
3,COc1cccc(C(=O)N(c2ccc(OC)cc2OC)C2C=CS(=O)(=O)C2)c1 (stereo not shown),-6.31%
4,Cc1cccc(NC(=O)NC2(C(=O)NCc3ccco3)CCCCC2)c1,2.75%
5,Cc1ccc(-n2c(C)nc3c(cnn3-c3ccc(F)cc3)c2=O)cc1,8.76%
6,COc1ccc(C(=O)Nc2cccc(NC(=O)c3cccs3)c2)cc1,2.36%
7,COc1ccc(C(=O)c2nccc3ccccc23)cc1,10.8%
8,COc1ccccc1CNC(=O)CSc1nc(-c2ccccc2)cn1N,10.1%
9,Cn1c(SCc2ccc(F)cc2)nnc1-c1cccs1,-2.34%
10,Cc1cc(N2CCOCC2)nc(NCc2ccccc2)n1,-3.12%
11,O=C(O)C1Nc2c(O)cc(Cl)c([N+](=O)[O-])c2C2C=CCC12 (stereo not shown),16.2%
12,CC1=Nc2ccccc2/C1=C/c1c(N)n2c(S(=O)(=O)C(C)C)nsc2nc1=O,20.7%
13,O=C1CC(c2ccccc2)SC(N(c2ccccc2)c2ccccc2)=N1 (stereo not shown),5.24%
14,Cc1ccc(NC(=O)NC(=O)CSc2nnnn2C)c(C)c1,5.05%
15,O=C(O)c1ccccc1-c1ccccc1C(=O)Nc1ccc2c(c1)[nH]c(=O)c1ccccc12,16%
16,O=C(O)c1ccc(/C=N/NC(=O)c2cc(-c3cccs3)nc3ccccc23)cc1,9.19%
17,CNC(=O)CC(=O)Nc1ccccc1C(=O)O,22.6%
18,O=[N+]([O-])c1ccc(Cl)c(Cl)c1Cl,12.3%
19,O=C(C1CCCN(S(=O)(=O)c2cnc[nH]2)C1)N1CCN(Cc2ccccc2)CC1 (stereo not shown),12.1%
20,Cn1c(-c2ccc(Br)cc2)cnc1NCc1cccnc1,-14.3%
21,CN1CCN(C(=O)c2ccc(CSc3nc4ccncc4n3Cc3ccc(F)cc3)cc2)CC1,8%
22,Cc1cc(C(=O)CSC(C)c2nc3ccccc3c(=O)[nH]2)c(C)n1C (stereo not shown),10.4%

row,SMILES,"hERG current change (%, negative = inhibition) at 1uM"
1,COc1cc(C(=O)NCc2nnc(SCC(=O)Nc3c(C)cc(C)cc3C)o2)cc(OC)c1OC,33.9%
2,COc1ccc(C2c3ccc(O)cc3Oc3ncn(CCCO)c(=N)c32)cc1 (stereo not shown),8.07%
3,Cc1cc(C)cc(NC(=O)c2cccc(NC(=O)c3ccco3)c2)c1,-7.71%
4,COc1ccc(CCNC(=O)c2c[nH]c3ccc(F)cc3c2=O)cc1OC,13.6%
5,CC(C)C1C(C#N)=C(N)SC(N)=C1C#N,17.6%
6,O=C(CN(c1ccccn1)S(=O)(=O)c1ccc(F)cc1)Nc1ccc(F)cc1F,-3.5%
7,O=C(NCC(=O)N1CCCC1)c1cccs1,3%
8,O=C(NC1CCCCC1)c1cc(F)cc2c1OCOC2,14.6%
9,COc1ccc(-c2nonc2NC(=O)c2oc3ccc(F)cc3c2C)cc1OC,14.4%
10,COc1cc(C(=O)N/N=C/c2sc(N3CCOCC3)nc2-c2ccccc2)cc(OC)c1OC,13.7%
11,CCN(c1ccccc1)S(=O)(=O)c1ccc(Cl)nc1,8.88%
12,Nc1ccc2nc(CCCCCCCCc3nc4ccc(N)cc4[nH]3)[nH]c2c1,9.23%
13,O=C(NCc1ccccc1Cl)C1CCC(CNc2c(N3CCCCC3)c(=O)c2=O)CC1 (stereo not shown),7.95%
14,CCOC(=O)CN1C(=O)S/C(=C/c2cc(C)n(-c3ccccn3)c2C)C1=O,0.493%
15,COc1ccc(N(C)S(=O)(=O)c2cccc(C(=O)Nc3ccc(OC)nc3)c2)cc1,9.59%
16,CCN(CC)S(=O)(=O)c1ccc(NC2c3ccccc3C(=O)N2c2ccc(C)cn2)cc1 (stereo not shown),18.3%
17,COc1ccc(OC)c(Nc2nc(NCCO)c3ccccc3n2)c1.Cl,11.1%
18,CCN=C1SC(CC(=O)Nc2ccccc2OCC)C(=O)N1CC (stereo not shown),-7.13%
19,CN1CCN(c2nc3c(c(=O)n(C)c(=O)n3C)n2CCSc2nnnn2-c2ccccc2)CC1,10.4%
20,O=C1CCC/C(=N\NC(=O)NC2CCCCC2)C1,-3.81%
21,CCc1cc2cc(C)ccc2nc1SCC(=O)NNC(=O)c1ccco1,5.1%
22,O=C(c1c[nH]c2ccccc12)N1CCOCC1,10.7%

row,SMILES,"hERG current change (%, negative = inhibition) at 1uM"
1,O=C(NNC(=O)c1ccccc1-n1cccc1)c1ccc(F)cc1,9.83%
2,COc1ccc2[nH]c(=O)c(CN(C(=O)c3cccnc3)c3cc(C)ccc3C)cc2c1,1.43%
3,Cc1ccc2c(N)c(C(=O)N(c3ccccc3)c3ccccc3)sc2n1,25.3%
4,COc1ccccc1NC(=O)COC(=O)/C=C/c1ccccc1[N+](=O)[O-],3.16%
5,Cc1c(NC(=O)c2cc(-c3ccco3)on2)c(=O)n(-c2ccccc2)n1C,11.4%
6,Cc1ccc(CNC(=O)COC(=O)[C@@H]2CC(O)CN2S(=O)(=O)c2ccc3c(c2)OCCO3)cc1 (stereo partly shown),6.07%
7,O=C(CNC(=O)c1cnccn1)Nc1ccc(F)c(F)c1F,18%
8,N#CC1(NC(=O)CSc2nnc(COc3ccccc3F)n2N)CCCCC1,11.8%
9,CC1CCc2c(sc(NC(=O)C3c4ccccc4Oc4ccccc43)c2C(N)=O)C1 (stereo not shown),4.65%
10,CC(=O)c1c(C)[nH]c(-c2ccccc2)c1C,10.4%
11,CC(OC(=O)CC1CCCCC1)C(=O)Nc1ccc(S(N)(=O)=O)cc1 (stereo not shown),0.0288%
12,CN(C(=O)c1cncc(Br)c1)c1c(N)n(Cc2ccccc2)c(=O)[nH]c1=O,9.13%
13,O=C(CNc1ccccc1Cl)c1ccc(Br)cc1,8.01%
14,O=C(c1ccc2c(c1)OCCO2)C1CCN(S(=O)(=O)c2ccc(F)cc2)CC1,-6.43%
15,CCCCn1c(N)c(N(CC)C(=O)CSCC(=O)Nc2ccc(OC)cc2)c(=O)[nH]c1=O,19.4%
16,C[C@H](NC(=O)c1cc2c([nH]c3ccccc32)c(-c2ccccc2)n1)C(=O)O,8.39%
17,CC(C)c1cc(N2CCN(C(=O)c3ccco3)CC2)n2c(nc3ccccc32)c1C#N,-9.3%
18,O=C(Nc1ccc(N2CCOCC2)cc1)Nc1ccc2nsnc2c1,10.9%
19,COC(=O)c1cc(C#N)c(N2CC(C)OC(C)C2)nc1C (stereo not shown),14.9%
20,CCOc1c(Br)cc(C(N)=O)cc1OC,19.2%
21,C=CCn1c(N)nc2ccccc21.Cl,12.5%
22,CCCNC(=O)CN1C(=O)NC(CCSC)C1=O (stereo not shown),13.1%
